Hit rate of the full screen: of about 110,000 compounds, about 230 (0.21%) showed an effect of 50% or more. The list shows a part of the results.
What follows are molecules tested against DPAP1 (Plasmodium falciparum, UniProt Q8IIJ9) (assay: primary screen, percent inhibition; read by cleavage of a fluorogenic dipeptide substrate; higher = more effect of the substance).
Design: species or system P. falciparum D10 trophozoite lysates; single well
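Also: 30 min substrate incubation versus DMSO and 10 µM JCP410 controls.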

Sequence of DPAP1 (Q8IIJ9 whole entry, looked up): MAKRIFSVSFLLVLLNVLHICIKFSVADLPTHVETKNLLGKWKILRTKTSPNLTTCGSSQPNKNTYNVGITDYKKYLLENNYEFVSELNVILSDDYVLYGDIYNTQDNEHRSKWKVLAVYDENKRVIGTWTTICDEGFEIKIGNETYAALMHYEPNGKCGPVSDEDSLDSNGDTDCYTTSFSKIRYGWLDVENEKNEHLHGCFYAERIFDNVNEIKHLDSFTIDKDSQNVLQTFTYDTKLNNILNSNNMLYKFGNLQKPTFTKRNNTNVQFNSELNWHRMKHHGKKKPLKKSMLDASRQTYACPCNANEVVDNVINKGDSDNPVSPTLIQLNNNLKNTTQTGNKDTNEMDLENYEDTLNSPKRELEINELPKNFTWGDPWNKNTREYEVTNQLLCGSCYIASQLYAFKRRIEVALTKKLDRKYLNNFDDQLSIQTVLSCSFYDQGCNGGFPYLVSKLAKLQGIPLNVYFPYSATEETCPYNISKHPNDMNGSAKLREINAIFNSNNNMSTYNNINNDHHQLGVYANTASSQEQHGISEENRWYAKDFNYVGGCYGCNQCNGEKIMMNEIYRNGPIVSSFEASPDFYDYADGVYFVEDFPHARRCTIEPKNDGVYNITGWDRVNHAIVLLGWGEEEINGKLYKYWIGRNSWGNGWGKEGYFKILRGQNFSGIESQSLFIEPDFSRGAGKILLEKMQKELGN

Row | SMILES | % Inhibition @ 10 uM [%]
1 | COc1ccc(-c2cc(C(F)(F)F)nc(SCC(=O)N3CCOCC3)n2)cc1 | -8.55
2 | Cc1ccccc1CNC(=O)Nc1sc2nc3n(c(=O)c2c1C)CCC(C)CC3 (stereo not drawn) | 1.68
3 | Cn1c(=O)c2c(nc(CN3CCOCC3)n2Cc2cccc3ccccc23)n(C)c1=O | -4.14
4 | Cc1ccc(N(CC(=O)NC2CC2)S(=O)(=O)c2ccccc2)c(C)c1 | -2.28
5 | Cc1nc(SCc2nc3ccccc3[nH]2)c2ccccc2n1 | 1.17
6 | O=C(Cn1cc2c(n1)CCCC2)N1CCc2ccccc2C1 | -3.58
7 | O=C(Nc1cccc(Cl)c1)N1CCOCC1 | 2.51
8 | O=c1/c(=C/c2ccc(OCc3ccccc3)cc2)sc2nc(-c3ccco3)nn12 | -3.64
9 | COc1ccc(NC(=N)Nc2nc(O)cc(CSc3ccc(Cl)cc3)n2)cc1 | -0.872
10 | Cc1ccccc1CN(c1ccc(C(=O)N2CCN(Cc3ccccc3)CC2)cc1)S(C)(=O)=O | -7.45
11 | O=C(NCC1CCCO1)c1cc(-c2ccc(F)cc2)no1 (stereo not drawn) | 1.05
12 | CCN(CC)CCN(C)Cc1ccc(NC(C)=O)cc1 | -4.75
13 | CC1=CC(C)C(COC(=O)Nc2ccccc2)C(C)C1 (stereo not drawn) | -6.82
14 | COc1ccc(CCn2c(SCC(N)=O)nc3nccnc3c2=O)cc1OC | -0.0652
15 | CCOC(=O)c1cnc2cc(C)nn2c1O | -3.34
16 | COc1ccc(CCNC(=O)c2c(C)cc(=O)oc2C)cc1OC | -0.519
17 | Cc1c(NC(=S)NC(=O)c2ccc(-c3ccccc3)cc2)c(=O)n(-c2ccccc2)n1C | 5.61
18 | Cc1nc2ccccc2nc1CSCc1ccco1 | -1.05
19 | Cc1ccc(Cl)cc1N(CC(=O)NCCc1ccccc1)S(C)(=O)=O | 0.331
20 | C=CCOc1ccc(S(=O)(=O)c2ccc(O)cc2)cc1 | 1.63
21 | CCC1=Nc2ncnn2C(c2cccc(OC)c2OC)/C1=C(/O)OC (stereo not drawn) | -3.37
22 | CCOC(=O)c1nnn(-c2nonc2N)c1CNCC(O)c1ccccc1 (stereo not drawn) | 2.8
23 | Cc1nc2c(C(=O)NCCCN3CCOCC3)cnn2c(C)c1Cc1ccc(F)cc1 | -0.519
24 | Cc1ccc2[nH]c3c(c2c1)CCCC3C(=O)O (stereo not drawn) | 21
25 | O=c1c(-c2ccccc2)c(O)cc2c3ccccc3c3ccccc3n12 | 3.05
26 | CC(C)C1(O)c2ccccc2-c2ncccc21 (stereo not drawn) | 2

Row | SMILES | % Inhibition @ 10 uM [%]
27 | CCn1c2ccccc2c2nnc(N3CCC(N4CCCCC4)CC3)nc21 | 0.522
28 | COc1ccc(C(=O)N/C(=C/c2ccc(F)cc2)C(=O)Nc2ccc(C)cc2)cc1OC | 2.36
29 | O=C(Cc1ccccc1)Nc1ccc(S(=O)(=O)N2CCc3ccccc32)cc1 | 5.03
30 | COc1ccc(Br)cc1/C=C1N=C(/C=C/c2ccc(C)cc2)OC\1=O | 3.26
31 | O=C1CC(Sc2ccccn2)C(=O)N1c1ccccc1 (stereo not drawn) | -4.41
32 | Cn1cccc1Cc1nnc(SCC(=O)NCC2CCCO2)n1Cc1ccccc1 (stereo not drawn) | -4.97
33 | COCCNC(=O)C(=O)NCc1ccccn1 | 1.81
34 | CCNS(=O)(=O)c1ccc(CCC(=O)NCc2cccnc2)cc1 | 5.93
35 | CCOc1ccc(C(=O)Nc2ccc(NC(=O)c3cc4ccccc4o3)c(OC)c2)cc1 | 2.39
36 | CS/C(=N\Cc1ccco1)Nc1[nH]nc(C)c1-c1ccccc1F | -2.28
37 | O=S(=O)(/N=C(/c1ccccc1)N1CCOCC1)c1ccccc1 | -1.1
38 | O=C(c1ccc(-n2cnc3cccnc32)cc1)N1CCC2(CC1)OCCO2 | -0.416
39 | CCC(=O)Nc1nn(C)c2nc(C)c(Cl)c(C)c12 | 17.6
40 | CCOCCCNc1oc(/C=C/c2cc(OC)c(OC)c(OC)c2)nc1C#N | 0.895
41 | Cc1cc(C)nc(NC(=O)Nc2cccc3ccccc23)c1 | 4.17
42 | COC(=O)C1=C(C)N(Cc2ccco2)C(=O)/C1=C\c1cc(C)n(-c2ccccc2C(F)(F)F)c1C | 3.27
43 | Clc1cccc(Cl)c1CN1CCC(N2CCCCC2)CC1 | -3.5
44 | N#C/C(=C\c1ccc(O)cc1)C(=O)NCCc1ccccc1Cl | -0.256
45 | COc1ccccc1NC(=O)C1C(C(=O)O)C2C=CC1C21CC1 (stereo not drawn) | 3.25
46 | CCOc1ccc(C2CC(=O)N3CN(Cc4ccccc4)CSC3=C2C#N)cc1 (stereo not drawn) | 48.5
47 | CCOC(=O)N1CCN(c2ccncc2S(=O)(=O)N2CCCCC2)CC1 | 1.94
48 | COCCCn1c(=N)c(S(=O)(=O)c2ccc(C)cc2)cc2c(=O)n3ccccc3nc21 | -5.01
49 | C=CCn1c(SCC(=O)Nc2ccccc2)nc2sc(C)c(C)c2c1=O | 2.7
50 | CC(C)CCNC(=O)CCCCn1c(=O)[nH]c2ccsc2c1=O | 4.02
51 | Cc1c(Cl)c(=O)oc2cc(OCC(=O)c3ccc(Cl)cc3)ccc12 | -1.26
52 | CC(C)(C)c1ccc2c(c1)OP(=O)(O)C=C2c1ccccc1 | -9.48

Row | SMILES | % Inhibition @ 10 uM [%]
53 | COc1cccc(CNC(=O)COc2ccccc2C#N)c1OC | -1.6
54 | CCOC(=O)c1ccc2[nH]c3c(c2c1)CCCC3O (stereo not drawn) | -0.693
55 | N#CC1=C(N)C(C#N)(C#N)[C@@H](c2ccccc2C(F)(F)F)[C@@H]2CCCC=C12 | -9.32
56 | O=S(=O)(NCCc1ccncc1)c1ccccc1 | 0.316
57 | CCN(CC)CCCCOc1ccc(C(C)(C)C)cc1 | -0.414
58 | Cc1cccc(C2=N/C(=C\c3cccc(C(F)(F)F)c3)C(=O)O2)c1 | 1.25
59 | Cc1cc(C(F)(F)F)nn1CC(=O)Nc1sc2c(c1C(N)=O)CCC(C(C)(C)C)C2 (stereo not drawn) | 1.08
60 | COc1cc(OC)c(OC)cc1CN1CCN(C2CCCC(C)C2)CC1 (stereo not drawn) | 0.611
61 | Cc1ccc2oc3c(c(=O)c2c1)C(c1ccc(F)cc1)N(c1ccccn1)C3=O (stereo not drawn) | 0.415
62 | N#CCOc1ccccc1/C=C1/Sc2ccccc2C1=O | -0.988
63 | Cc1ccc(CNC(=O)C2CCC(CNc3c(N4CCC(C)CC4)c(=O)c3=O)CC2)cc1 (stereo not drawn) | 5.91
64 | CCN(CC)c1ccc2c(O)cc(=O)oc2c1 | -1.85
65 | Cc1nn(CC(=O)NCCN2CCN(C)CC2)c(=O)c2nn(-c3ccccc3)c(C)c12 | -1.76
66 | CCSC1=C(C#N)C(=O)NC(C)S1 (stereo not drawn) | -1.72
67 | COc1nc(-c2ccccc2)cc(-c2ccc(OC)c(OC)c2)n1 | -3.27
68 | COc1cc(C(=O)NCCC(=O)NCc2c(F)cc(F)cc2F)cc(OC)c1OC | -0.519
69 | Cc1cc2nc(Nc3nc(O)c4c(n3)CCC4)nc(C)c2cc1C | 2.69
70 | C(#Cc1ccccc1)CN1CCN(C23CC4CC(CC(C4)C2)C3)CC1 | 6.96
71 | COc1ccccc1CNc1nnc(C)c2nnn(Cc3ccccc3Cl)c12 | 0.00706
72 | O=C(CCCOc1ccc(Cl)cc1Cl)N1CCN(c2ccc([N+](=O)[O-])cc2)CC1 | 0.708
73 | N#Cc1ccc(Oc2ccc(-c3nc4ccccc4c(=O)o3)cc2)cc1C#N | -5.47
74 | CC(C)(C)c1ccc(S(=O)(=O)Nc2ccc(O)cc2)cc1 | -2.86
75 | Cc1ccc(N2CC(=O)NC2=O)cc1 | 5.01
76 | COc1ccc(C(=O)CSC(=O)Nc2ccccc2)cc1 | -2.62
77 | CN1C(=O)/C(=C2\SC(=O)NC2=O)c2ccccc21 | 1.74
78 | COc1cccc(/C(O)=C/c2nc3nonc3nc2O)c1 | -5.29

Row | SMILES | % Inhibition @ 10 uM [%]
79 | N#CC1=C(N)Oc2c(ccc3ccccc23)C1c1ccccc1Cl (stereo not drawn) | -2.89
80 | N#CC1=C(N)NC(SCc2ccccc2)=C(C#N)C1c1ccccc1Cl (stereo not drawn) | 31.7
81 | Cc1ccc(-c2nnc(S)n2/N=C/c2c(C)nn(-c3ccccc3)c2O)cc1 | 4.18
82 | NC(=O)Cn1c2ccccc2c2nc3ccccc3nc21 | 0.812
83 | O=C(O)c1ccc(NCn2nnc3ccccc32)cc1 | 3.82
84 | O=C(Nc1ccc2nc(SCC(=O)N3CCOCC3)sc2c1)c1ccccc1 | -0.413
85 | Cc1ccc(NCc2ccc3c(c2)OCO3)cc1C | -7.17
86 | Cc1nn(CC(=O)NCCCN2CCCC2=O)c(=O)c2cccn12 | -1.65
87 | OC1=C2Sc3ccc(Cl)cc3N=C2CCC1 | 2.51
88 | CC(C)C(=O)Nc1ccc(-c2nc(O)c3ccccc3n2)cc1 | 3.21
89 | COc1cccc(CNCc2c(F)cccc2F)c1OC | -4.7
90 | CCCCNC(=O)CCc1c(C)nc2nc(C)nn2c1C | -6.03
91 | CCCCCn1c(=O)c(C(=O)Nc2ccccc2Cl)c(O)c2ccccc21 | -2.88
92 | Cc1ccc2oc(=O)c(-c3nc4ccncc4[nH]3)cc2c1 | 0.351
93 | O=C(Nc1cccc(Cl)c1)Nc1cccc2cccnc12 | -3.79
94 | O=C(O)CSc1nnc(-c2ccccc2Cl)n1-c1ccccc1 | -2.39
95 | CC(C)(C)C1CCC(N2CCCC(C(N)=O)C2)CC1 (stereo not drawn) | 0.217
96 | COC(=O)c1nc2ccccc2n1Cc1ccc(C)cc1 | 0.0882
97 | COc1ccc(CCNC(=O)CSc2nc3ccccc3nc2N2CCCC2)cc1OC | -3.53
98 | CC(C)=C1C2C=CC1C1C(=O)N(c3ccc(C(=O)O)cc3)C(=O)C21 (stereo not drawn) | -7.02
99 | COc1cc2c(cc1OC)C(C(=O)NCCN(C)C)C(c1cccnc1)N(C)C2=O (stereo not drawn) | 0.287
100 | CCC1CCCCN1S(=O)(=O)c1cccs1 (stereo not drawn) | 5.7
101 | Cc1cccc(CCNC(=O)C2CCC(C/N=c3/c(N4CCCC4)c(O)c3=O)CC2)c1 (stereo not drawn) | -4.19
102 | COc1ccc(C(=O)Cn2ccnc2C(=O)NCCc2ccc(Cl)cc2)cc1 | 4.83
